Experimental findings from PubChem BioAssay AID1508624 (National Center for Advancing Translational Sciences (NCATS), 2021) are described below.

Out of some 48,000 compounds screened, about 120 (0.25%) were called active. Roughly 4% stayed inconclusive and do not appear here. The call rests on the fitted dose curve; in most records, active means well fitted activation curve with a large enough effect; inconclusive means small, poorly fitted or top-dose-only effect, or another doubt; inactive means no such curve, though single readings can be large or run the other way. The list shows a part of the results.

The nature of the experiment: Primary qHTS for Identification of Small Molecule Activators of Huntingtin-Antisense Promoter Activity. Further: nearly all actives have a fitted effect of over 55% in size. The settings on record: HEK293 HTT-AS promoter firefly luciferase reporter, 24 h; series mostly up to 57.5 µM; activity change, positive = activation: at the top concentration. Put shortly:
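Luminescence was read after Dual-Glo reagent and a 10 min room-temperature incubation. Values were normalized to vehicle (0% activity) and zero RLU (-100% activity). Reporter HEK293 cells had been exposed to compounds (up to 57.5 uM final) for 24 h.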
In the case of `COc1cc(-c2noc(-c3ccc(NCCc4ccccc4)c([N+](=O)[O-])c3)n2)cc(OC)c1OC`, the “activity change, positive = activation” value is inactive: 10.4%.
As for `COc1cc(NC(=O)CCNS(=O)(=O)c2ccc3c(c2)CCN3C(=O)C2CC2)cc(OC)c1`, the “activity change, positive = activation” value is inactive: -5.45%.
`CC(C)NC[C@@H](O)COc1cccc2ccccc12`: the “activity change, positive = activation” value is inactive: -11%.
On to `COCC(=O)N1CCc2cc(OC)c(OC)cc2C1COc1ccc2c(C)cc(=O)oc2c1` (configuration not stated), for which the “activity change, positive = activation” value is inactive: 16.3%.
Take `Cc1ccc(C)c(N2CCN(C(=O)c3ccc4c(Cl)c5c(nc4c3)CCCC5)CC2)c1`: the “activity change, positive = activation” value is inactive: -18.9%.
Turning to `O=c1oc2ccc(Br)cc2cc1-c1nc(-c2ccccc2)no1`, the “activity change, positive = activation” value is inactive: -1.68%.
For `CCS(=O)(=O)N1CC(=O)N(c2ccc(C)c(C)c2)C(C)(C(=O)NC2CCCCC2)C1` (configuration not stated), the “activity change, positive = activation” value was inactive: -4.94%.
As to `CCC(C)NC(=O)C1CCC(CNS(=O)(=O)c2cccc3nsnc23)CC1` (configuration not stated), the activity change, positive = activation was inactive: -6.24% [at 11.5 µM, percent change from vehicle, -100% = no light].
On to `CCc1ccc(-c2nc3c(c(SCc4ccc(F)cc4)n2)Cc2c(CO)cnc(C)c2O3)cc1`, for which the “activity change, positive = activation” value is inactive: -13%.
In the case of `COc1ccc(N2CCN(C(c3ccccc3)c3nnc(-c4ccccc4Cl)o3)CC2)cc1` (configuration not stated) it was inactive: -12%; in that of `Cc1cccc(NC(=O)CSc2nc3c(oc4ccccc43)c(=O)n2C(C)C)c1`, inactive: -32%.
Take `CC1=C(C(=O)NCCc2ccc(Cl)cc2)C2(CCCCC2)OC1=O`: the “activity change, positive = activation” value is inactive: -4.28%.
In the case of `COc1cccc(CNC(=O)Cn2ncc3c4ccccc4n(C)c3c2=O)c1` it was inactive: -7.41%; in that of `COCCNC(=O)CCCn1c(SCC(=O)Nc2cccc(C)c2)nc2c(sc3ccccc32)c1=O`, inactive: -9.65%.
For `COc1ccc(C(=O)c2oc3ccccc3c2NC(=O)COc2c(C)cc(C)cc2C)cc1`, the “activity change, positive = activation” value was inactive: -2.92%.
Regarding `CCc1ccc(NC(=O)Cn2nnc(C(=O)NCc3ccco3)c2N)cc1`, the “activity change, positive = activation” value was inactive: -0.732%.
With `Cc1ccccc1C(=O)Nc1nnc(SCc2cc(=O)c3c(C)ccc(C)c3[nH]2)s1`, the “activity change, positive = activation” value was inactive: -26.5%.
Turning to `CC1CCN(S(=O)(=O)c2cc(C(=O)NCc3ccc(F)cc3)n(C)c2)CC1`, the “activity change, positive = activation” value was inactive: -31.5%.
`COc1cccc(COC(=O)c2ccc(-c3nnn(Cc4ccccc4)n3)cc2)c1`: the “activity change, positive = activation” value is inactive: -9.86%.
For `O=C1C(c2ccc(F)cc2)N(CCc2ccccc2)C(=O)CN1C1CCCCC1` (configuration not stated), the “activity change, positive = activation” value is inactive: 0.0175%.
Consider `CNC(=O)c1cc2n(n1)CCCN(Cc1ccc(F)cc1)C2=O`, for which the “activity change, positive = activation” value is inactive: -10.1%.
For `COc1ccc(CN(C(=O)Nc2ccc(C)c(F)c2)C2CCN(C(C)=O)CC2)cc1`, the “activity change, positive = activation” value was inactive: -7.35%.
On to `CCOc1ccc(CCNS(=O)(=O)c2c(C)nc3sc(C)cn3c2=O)cc1OCC`, for which the “activity change, positive = activation” value was inactive: -5.82%.
For the compound `CC(=O)c1ccc(NC(=O)CCc2c(C)nn(-c3ccc4nncn4n3)c2C)cc1`, the “activity change, positive = activation” value is inactive: -15.9%.
As to `CSc1ccc(CCNC(=O)c2cc3n(n2)CCCN(Cc2ccc(C)cc2)C3=O)cc1`, the “activity change, positive = activation” value was inactive: -13%.
Take `CCC1CN(C(=O)N2CCC(C(=O)NCCOC)CC2)c2ccccc2O1` (configuration not stated): the “activity change, positive = activation” value is inactive: -4.03%.
With `Cc1ccc(NC(=O)CCS(=O)(=O)c2ccc3nc(C)sc3c2)cc1`, the “activity change, positive = activation” value was inactive: -16.1%.
As for `O=C(Nc1sc2c(c1C(=O)NCc1ccccc1)CCCC2)c1cc(=O)c2cc(Cl)ccc2o1`, the “activity change, positive = activation” value is inactive: -7.03%.
In the case of `CCc1ccccc1N1CC(c2nc3ccccc3n2Cc2cccc(C)c2)CC1=O` (configuration not stated) it was inactive: -48.7%; in that of `N#Cc1ccccc1Cn1nnc2c(=O)[nH]c(C3CCCN(S(=O)(=O)c4ccc(F)cc4)C3)nc21` (configuration not stated), inactive: -22.7%; in that of `CCOc1ccc(S(=O)(=O)NCCc2sc(-c3ccc(C)cc3)nc2C)cc1`, inactive: -18.8%.
Turning to `CCOc1ccccc1N1CC(c2nc3ccccc3n2CCCOc2ccccc2OC)CC1=O` (configuration not stated), the “activity change, positive = activation” value was inactive: 7.34%.
Take `COc1cccc(CNC(=O)Cn2ccc3cc(S(=O)(=O)N4CCCC4)ccc32)c1`: the “activity change, positive = activation” value was inactive: -17.7%.
As to `O=C(NCc1ccccc1)C1CCC(CNS(=O)(=O)c2ccc(Br)s2)CC1` (configuration not stated), the “activity change, positive = activation” value is inactive: -12.2%.
Turning to `CC1CCc2nn(CC(=O)Nc3cccc(C(F)(F)F)c3)c(=O)cc2C1` (configuration not stated), the “activity change, positive = activation” value is inactive: -18.2%.
`COc1cc(NC(=O)Cn2c(=O)n(C(C)C)c(=O)c3oc4ccccc4c32)cc(OC)c1`: the “activity change, positive = activation” value was inactive: -12.3%.
For the compound `O=C(Nc1cccnc1Cl)c1cc(-c2ccc(Cl)cc2)on1`, the “activity change, positive = activation” value is inactive: 7.77%.
For the compound `Cc1cc(C)c(NC(=O)CSc2nnc3[nH]c(=O)cc(C)n23)c(C)c1`, the “activity change, positive = activation” value is inactive: 12%.
Regarding `O=c1c2ccccc2n2c(-c3ccc(F)c(F)c3)nnc2n1CCc1ccccc1`, the “activity change, positive = activation” value was inactive: 27.1%.
With `CCOC(=O)c1ccccc1NC1(c2ccc(OC)cc2)C(=O)c2ccccc2C1=O`, the “activity change, positive = activation” value was inactive: -21.4%.
In the case of `CCC(=O)Nc1ccc2nc(SCC(=O)N3CCc4ccccc43)sc2c1` it was inactive: -15.4%; in that of `CCOC(=O)c1c(S(=O)(=O)N2CCCC(C(=O)Nc3ccc(C)cc3C)C2)c(C)n(CC)c1C` (configuration not stated), inactive: 16%; in that of `COC(=O)c1ccc(C2c3c(oc4cc(C)c(C)cc4c3=O)C(=O)N2c2ccccn2)cc1` (configuration not stated), inactive: -4.97%.
As to `CCOc1ccc(S(=O)(=O)Nc2ccc3c(c2)c(C(C)=O)c(C)n3S(=O)(=O)c2ccc(OCC)cc2)cc1`, the “activity change, positive = activation” value is inactive: -41.5%.
As for `Cc1cc(C)c(NC(=O)Cn2c(=O)n(CCC(=O)NCc3ccc4c(c3)OCO4)c(=O)c3ccccc32)c(C)c1`, the “activity change, positive = activation” value is inactive: -18.7%.
`CC(=O)Nc1ccc(C(=O)CSc2nnc3cc(C)c4ccccc4n23)cc1`: the “activity change, positive = activation” value is inactive: 0.228%.
The result for `CCOC(=O)C1CCN(C(=O)CSc2c3c(nc4ccc(Cl)cc24)CCCC3)CC1` reads inactive: -51.4%.
